No constants are given. Whether binding was seen depends on the method and setting. Some results given as binding are weak or reduced against the parent protein; the word gives no strength.

Amino acid sequences for entries named in this document (tags omitted).
UniProt P29468: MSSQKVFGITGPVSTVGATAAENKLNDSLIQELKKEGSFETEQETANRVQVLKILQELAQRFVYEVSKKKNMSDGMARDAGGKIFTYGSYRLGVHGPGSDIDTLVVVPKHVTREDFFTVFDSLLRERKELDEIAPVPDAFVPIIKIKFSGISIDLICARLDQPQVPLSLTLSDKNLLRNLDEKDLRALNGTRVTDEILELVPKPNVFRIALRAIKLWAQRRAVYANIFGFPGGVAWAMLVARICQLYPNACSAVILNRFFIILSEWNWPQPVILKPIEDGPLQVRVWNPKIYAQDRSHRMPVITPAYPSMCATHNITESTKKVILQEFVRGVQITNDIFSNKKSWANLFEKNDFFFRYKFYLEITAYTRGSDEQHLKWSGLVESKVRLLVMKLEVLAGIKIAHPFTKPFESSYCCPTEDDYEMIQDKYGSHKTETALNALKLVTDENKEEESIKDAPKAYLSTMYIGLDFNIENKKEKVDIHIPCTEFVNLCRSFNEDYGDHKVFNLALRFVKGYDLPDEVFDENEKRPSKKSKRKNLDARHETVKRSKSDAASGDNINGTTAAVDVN

We go through 6 molecules from paper PMC6265451.

The labels stand for the following.
B1: Syc1 (protein, UniProt Q08553 1-188)
chain: MDLPKDKSDRTHQRINLNNSGTDRTNDLYLHIVQTFGCIETTATENATKLLMLGDVEVEISASSVSIEWTQKSMISQTIADSIVIMIIGLCASDKNVLSESELKERNHNVWKIQELQNLFREQFGDSFSIDEGIGKKENVKNGSVTIGKSKATIDFSTMKLIDCNSNPLKGRVESILSIGQKLTTPLC
B2: Pta1 (protein, UniProt Q01329 1-785)
chain: MSSAEMEQLLQAKTLAMHNNPTEMLPKVLETTASMYHNGNLSKLKLPLAKFFTQLVLDVVSMDSPIANTERPFIAAQYLPLLLAMAQSTADVLVYKNIVLIMCASYPLVLDLVAKTSNQEMFDQLCMLKKFVLSHWRTAYPLRATVDDETDVEQWLAQIDQNIGVKLATIKFISEVVLSQTKSPSGNEINSSTIPDNHPVLNKPALESEAKRLLDMLLNYLIEEQYMVSSVFIGIINSLSFVIKRRPQTTIRILSGLLRFNVDAKFPLEGKSDLNYKLSKRFVERAYKNFVQFGLKNQIITKSLSSGSGSSIYSKLTKISQTLHVIGEETKSKGILNFDPSKGNSKKTLSRQDKLKYISLWKRQLSALLSTLGVSTKTPTPVSAPATGSSTENMLDQLKILQKYTLNKASHQGNTFFNNSPKPISNTYSSVYSLMNSSNSNQDVTQLPNDILIKLSTEAILQMDSTKLITGLSIVASRYTDLMNTYINSVPSSSSSKRKSDDDDDGNDNEEVGNDGPTANSKKIKMETEPLAEEPEEPEDDDRMQKMLQEEESAQEISGDANKSTSAIKEIAPPFEPDSLTQDEKLKYLSKLTKKLFELSGRQDTTRAKSSSSSSILLDDDDSSSWLHVLIRLVTRGIEAQEASDLIREELLGFFIQDFEQRVSLIIEWLNEEWFFQTSLHQDPSNYKKWSLRVLESLGPFLENKHRRFFIRLMSELPSLQSDHLEALKPICLDPARSSLGFQTLKFLIMFRPPVQDTVRDLLHQLKQEDEGLHKQCDSLLDRLK
B3: Yth1 (protein, UniProt Q06102 1-208)
chain: MSLIHPDTAKYPFKFEPFLRQEYSFSLDPDRPICEFYNSREGPKSCPRGPLCPKKHVLPIFQNKIVCRHWLRGLCKKNDQCEYLHEYNLRKMPECVFFSKNGYCTQSPDCQYLHIDPASKIPKCENYEMGFCPLGSSCPRRHIKKVFCQRYMTGFCPLGKDECDMEHPQFIIPDEGSKLRIKRDDEINTRKMDEEKERRLNAIINGEV
B4: Mpe1 (protein, UniProt P35728 1-441)
chain: MSSTIFYRFKSQRNTSRILFDGTGLTVFDLKREIIQENKLGDGTDFQLKIYNPDTEEEYDDDAFVIPRSTSVIVKRSPAIKSFSVHSRLKGNVGAAALGNATRYVTGRPRVLQKRQHTATTTANVSGTTEEERIASMFATQENQWEQTQEEMSAATPVFFKSQTNKNSAQENEGPPPPGYMCYRCGGRDHWIKNCPTNSDPNFEGKRIRRTTGIPKKFLKSIEIDPETMTPEEMAQRKIMITDEGKFVVQVEDKQSWEDYQRKRENRQIDGDETIWRKGHFKDLPDDLKCPLTGGLLRQPVKTSKCCNIDFSKEALENALVESDFVCPNCETRDILLDSLVPDQDKEKEVETFLKKQEELHGSSKDGNQPETKKMKLMDPTGTAGLNNNTSLPTSVNNGGTPVPPVPLPFGIPPFPMFPMPFMPPTATITNPHQADASPKK
B5: Fip1 (protein, UniProt P45976 1-327)
chain: MSSSEDEDDKFLYGSDSELALPSSKRSRDDEADAGASSNPDIVKRQKFDSPVEETPATARDDRSDEDIYSDSSDDDSDSDLEVIISLGPDPTRLDAKLLDSYSTAATSSSKDVISVATDVSNTITKTSDERLITEGEANQGVTATTVKATESDGNVPKAMTGSIDLDKEGIFDSVGITTIDPEVLKEKPWRQPGANLSDYFNYGFNEFTWMEYLHRQEKLQQDYNPRRILMGLLSLQQQGKLNSANDTDSNLGNIIDNNNNVNNANMSNLNSNMGNSMSGTPNPPAPPMHPSFPPLPMFGSFPPFPMPGMMPPMNQQPNQNQNQNSK
B6: Ipa1/Yjr141w (protein, UniProt P47172 1-347)
chain: MVQYVVEWLPRIQSISVVVEGWKQVEIKNLKDTLMSISGDEEQVEDILLPVEVEEKVDASYKFKNRGKDLEWMTKLRSKSSKIYDSSIMSLPDGRWTKEELRSDSDFSIECLNCKQKIISKDNCQVLNDMPSEFWFELMDYWHCHKPDVKEDKSSYTRFETLKPSKNEILIGSSYFQGTPATFENVATTKENDNVLCIKCSAVLGQVTAGSLYKLHKWKLQLIRSGNTYKFPPECDITISLINVVKANSCRYVLVKCKTESLLVWIFSVDIGVTLTGNKSFKRAMKLLYTNSVTTINRCLNRQVVEELDFQETSFNAFYSALQHTNALLPSSMKKIGEWTISYTSLI

The target in one assay is T1, Ref2-TAPS (S. cerevisiae) (UniProt P42073).
T1 sequence: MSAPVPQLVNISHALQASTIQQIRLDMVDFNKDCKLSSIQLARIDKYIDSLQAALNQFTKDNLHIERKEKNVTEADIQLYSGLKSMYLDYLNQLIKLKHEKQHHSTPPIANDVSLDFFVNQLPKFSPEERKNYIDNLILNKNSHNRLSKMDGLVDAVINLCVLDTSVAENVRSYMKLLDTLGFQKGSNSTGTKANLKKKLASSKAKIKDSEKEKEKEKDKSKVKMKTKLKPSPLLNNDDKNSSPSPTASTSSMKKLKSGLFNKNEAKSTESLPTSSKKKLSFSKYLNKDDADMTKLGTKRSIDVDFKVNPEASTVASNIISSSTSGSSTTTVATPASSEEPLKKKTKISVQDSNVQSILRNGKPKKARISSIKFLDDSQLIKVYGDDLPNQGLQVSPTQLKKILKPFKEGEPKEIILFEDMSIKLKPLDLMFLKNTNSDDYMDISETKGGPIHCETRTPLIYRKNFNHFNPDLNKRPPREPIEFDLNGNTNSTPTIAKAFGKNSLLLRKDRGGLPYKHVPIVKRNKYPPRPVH
The assay is described as follows: anion exchange chromatography; TAPS affinity purification from tagged yeast strain (Ref2-tagged; Pta1-tagged with SYC1 deleted), then Mono Q 5/50 GL in 20 mM HEPES pH 7.9, 150 mM KCl, 3 mM DTT, 0.5 mM Mg(OAc)2; APT eluted at 260 mM KCl and CPF at 400 mM KCl.
Consider B1, for which the binding entry is on record as “binds”.
On the same count and under the same terms, the entry for B2 is “binds”; for B3 it is “binds”; for B4 it is “binds”.
As to B5, the binding entry is “binds”.

The target of a further assay is T2, Pta1-TAPS (S. cerevisiae) (UniProt Q01329).
T2 sequence: B2 chain
The description is as above.
As for B3, the binding entry is “binds”.
The same measure, in the same setting: the same measure for B4: “binds”; for B5: “binds”.

A further assay has as its target T3, Syc1-TAPS (S. cerevisiae) (UniProt Q08553).
T3 sequence: B1 chain
In words: SEC; TAPS affinity purification from tagged yeast strain, then Superose 6 PC 3.2/30 in 20 mM HEPES pH 7.9, 150 mM KCl, 3 mM DTT, 0.5 mM Mg(OAc)2, 0.5 mM MnCl2; fractions on Coomassie-stained SDS-PAGE.
As for B2, the binding entry is recorded as “binds”.
On the same count and under the same terms, the entry for B3 is “no binding”.
The same measure, in the same setting: the same measure for B4: “no binding”; for B5: “no binding”.

A further assay has as its target T1, Ref2-TAPS (S. cerevisiae). Described as above.
On to B1, for which the binding entry is on record as “binds”.
Consider B2, for which the binding entry was “binds”.
In the case of B3, the binding entry is “binds”.
Still for that read-out and setting: the entry for B4 is “binds”; for B5 it is “binds”.

The next assay addresses Pap1-TAPS (S. cerevisiae) (UniProt P29468). The assay is described as above.
Turning to B1, the binding result is “no binding”.
Same read-out and setting: the same measure for B2: “binds”.
For B3, the binding entry was “binds”.
With B5, the binding entry is given as “binds”.

In a further assay the target is T4, Mpe1-TAPS (S. cerevisiae) (UniProt P35728).
T4 sequence: B4 chain
The description is as above.
For B1, the binding entry was “no binding”.
The same measure, in the same setting: the same measure for B2: “binds”.
The same measure, in the same setting: the entry for B6 is “binds”.

Another assay deals with T2, Pta1-TAPS (S. cerevisiae). The description is as above.
In the case of B1, the binding result is “binds”.
On the same count and under the same terms, the entry for B3 is “binds”; for B4 it is “binds”.
Still for that read-out and setting: the entry for B5 is “binds”.
